Assay results from PubChem BioAssay AID894 (National Center for Advancing Translational Sciences (NCATS), 2007).
“And” between values parts separate entries of the source, which are not always exact repeats. Equal entries are not always repeated. Out of some 150,000 compounds screened, about 6,500 (4.3%) were called active. This list was built around the results that the source calls inconclusive (neither active nor inactive); the mix of calls is not that of the screen. Calls come from the whole dose curve; as a rule, active = well fitted inhibition curve with a large enough effect (not every such curve was filed as active); inconclusive = small, poorly fitted or top-dose-only effect, or another doubt; inactive = no such curve, though single readings can be large or run the other way. Potencies of inconclusive entries are doubtful fits and often do not repeat.

What follows are compounds tested against 15-hydroxyprostaglandin dehydrogenase [NAD(+)] (Homo sapiens) (UniProt P15428) (assay: qHTS Assay for Inhibitors of HPGD (15-Hydroxyprostaglandin Dehydrogenase)). Settings: purified HPGD, NADH fluorescence kinetic, PGE2 substrate; activity change, negative = inhibition: hits give low values.
Procedure, shortened: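 NADH formation kinetics: reaction with 30 uM PGE2 and 1 mM NAD+ (final), 20 nM enzyme, Tris-HCl pH 8 with Tween 20, after 15 min compound preincubation at room temperature. Fluorescence change, last versus first of five reads.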
% is set by controls: 0 for no effect and ±100 for the full control effect; potency is the fitted concentration of half-maximal effect; tags give direction and shape of the fitted curve.

Sequence of UniProt P15428 (P15428 whole entry, looked up): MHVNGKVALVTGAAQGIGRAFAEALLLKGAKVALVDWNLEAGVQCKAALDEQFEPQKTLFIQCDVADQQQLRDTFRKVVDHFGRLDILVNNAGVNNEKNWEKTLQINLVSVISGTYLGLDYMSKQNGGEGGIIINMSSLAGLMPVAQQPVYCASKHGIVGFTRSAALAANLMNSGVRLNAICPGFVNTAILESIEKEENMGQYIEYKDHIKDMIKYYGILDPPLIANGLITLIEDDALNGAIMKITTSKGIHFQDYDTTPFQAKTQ

Potency, inconclusive:
COc1ccccc1/C=C/C(=O)OCCN1CCOCC1 15.8 µM [inhibitor, partial curve]
Cc1c(NC(=O)c2cc3nc(-c4ccccc4)cc(C)n3n2)c(=O)n(-c2ccccc2)n1C 31.6 µM [inhibitor, partial curve]
Cc1ccc2[nH]c(-c3ccccc3)cc(=O)c2c1 31.6 µM [inhibitor, partial curve]
COC(=O)C1=C(C)NC2=C(C(=O)CCC2)C1c1cn(Cc2ccc(Br)cc2)nc1-c1ccccc1 (stereo not drawn) 25.1 µM [inhibitor, partial curve]
Cc1ccc(N2C(=O)/C(=C\c3ccco3)SC2=S)cc1 31.6 µM [inhibitor, partial curve, poor fit]
O=C(Nc1ccccc1N1CCCCC1)c1ccc(-c2ccc(Cl)cc2)o1 25.1 µM [inhibitor, single point]
COc1cc(NC(=O)CSCC(=O)Nc2cccc(C(F)(F)F)c2)c(Cl)cc1Cl 17.8 µM [inhibitor, partial curve]
CCCCC1CCC(c2nc(-c3ccccn3)no2)CC1 (stereo not drawn) 22.4 µM [inhibitor, partial curve]
CN1CCN(c2ccc(S(=O)(=O)N3CCCCC3)cc2NC(=O)c2ccc3ccccc3c2)CC1 35.5 µM [inhibitor, single point]
CCCCCCCCOC(=O)C1=C(C)Nc2nnnn2C1c1cccs1 (stereo not drawn) 28.2 µM [inhibitor, single point]
CCC(C)NC(=O)CSC1=Nc2ccccc2C2=NC(CC(=O)NCc3ccccc3)C(=O)N12 (stereo not drawn) 28.2 µM [inhibitor, partial curve]
O=C(O)Cc1ccc(O)c(O)c1 39.8 µM [inhibitor, single point]
CCOC(=O)C(=CNc1ccc2c(c1)nnn2-c1ccc(Cl)cc1)C(=O)OCC 25.1 µM [inhibitor, partial curve]
CCCOc1c(Br)cc(C2C3=C(CCCC3=O)N(C)C3=C2C(=O)CCC3)cc1OC 28.2 µM [inhibitor, partial curve]
NC(=O)c1ccsc1NC(=O)COC(=O)c1ccccc1NCc1ccco1 35.5 µM [inhibitor, partial curve]
COc1cc2c(cc1NC(=O)Nc1ccc(F)cc1)oc1ccccc12 31.6 µM [inhibitor, partial curve, poor fit]
O=S(=O)(c1ccc(-c2csc(Nc3ccc(Br)cc3)n2)cc1)N1CCCC1 12.6 µM [inhibitor, partial curve]
COc1ccc(-c2noc(CCCC(=O)NCCc3ccccc3)n2)cc1OC 39.8 µM [inhibitor, single point]
Cc1c(C(=O)N2CCCC2)sc(NC(=O)c2cccc(Cl)c2)c1C#N 25.1 µM [inhibitor, single point]
CC(C)c1ccc(OCc2nc(-c3ccccn3)no2)c(Br)c1 31.6 µM [inhibitor, single point]
COC(=O)c1cc(OC)nc2c1c(=O)n(C)c(=O)n2C 28.2 µM [inhibitor, partial curve]
c1ccc(-c2cc3c(-n4cccc4)ncnc3o2)cc1 35.5 µM [inhibitor, single point]
N#Cc1ccc(CSc2ncnc3c2cnn3Cc2ccccc2)cc1 7.94 µM [inhibitor, full curve, poor fit]
CC1=C(C(=O)N2CCOCC2)C(c2ccccc2F)C2=C(CC(C)(C)CC2=O)N1 (stereo not drawn) 31.6 µM [inhibitor, partial curve]
Cc1ccc(C(=O)Nc2sc3c(c2C(=O)NCc2ccco2)CCCC3)cc1 31.6 µM [inhibitor, partial curve]
Cc1c(C#N)c(=O)oc2ccc3ccccc3c12 1.78 µM [inhibitor, partial curve]
Cc1ccc(C)c2[nH]c(=O)c(CCNC(=O)Cc3cccs3)cc12 20 µM [inhibitor, partial curve]
CCOc1cc2[nH]c(=O)n(CCCC(=O)NCc3ccc(OC)cc3)c(=O)c2cc1OCC 20 µM [inhibitor, partial curve]
CC1=CC(=O)c2ccccc2C1=O 39.8 µM [inhibitor, partial curve, poor fit]
CCC(C)c1ccc(NC(=S)NCc2cccnc2)cc1 (stereo not drawn) 14.1 µM [inhibitor, partial curve, poor fit]
CSc1ccc(-c2nc3cnccn3c2Nc2ccc3c(c2)OCO3)cc1 22.4 µM [inhibitor, single point]
O=C(N/N=C/c1c[nH]c2ccccc12)c1[nH]c2ccc(Br)cc2c1-c1ccccc1 31.6 µM [inhibitor, single point]
Fc1ccc(CSc2ncnc3c2oc2ccccc23)cc1 11.2 µM [inhibitor, partial curve]
N#C/C(=C\c1ccc(OCC(N)=O)cc1)c1ccccc1 25.1 µM [inhibitor, partial curve, poor fit]
CC(C)C(=O)NC(=S)Nc1ccc(S(=O)(=O)NC(C)(C)C)cc1 17.8 µM [inhibitor, partial curve]
Fc1cc(Br)ccc1NC(=S)Nc1ccccc1 28.2 µM [inhibitor, single point]
CC(C)=CCC/C(C)=C/COc1ccc2ccc(=O)oc2c1 35.5 µM [inhibitor, partial curve] and 31.6 µM [inhibitor, partial curve]
Cc1ccc2[nH]c(=O)c3cc(C(=O)N(C)Cc4ccco4)sc3c2c1 15.8 µM [inhibitor, partial curve]
COC(=O)c1c(NC(=O)c2ccc(C)c(S(=O)(=O)Nc3ccccc3C)c2)sc2c1CCCC2 28.2 µM [inhibitor, partial curve]
O=C(Cc1csc(-c2ccccc2)n1)NCc1ccccc1F 31.6 µM [inhibitor, partial curve]
Cc1nc(CC(=O)Nc2nc(C(C)(C)C)cs2)cs1 28.2 µM [inhibitor, partial curve]
CC(C)COC(=O)Cc1c(O)c2ccccc2[nH]c1=O 31.6 µM [inhibitor, partial curve]

Potency, active:
COC(=O)c1c(-c2ccc(OC)c(OC)c2)csc1N 28.2 µM
O=C1ON=C(c2ccccc2)/C1=C/c1ccc(-c2ccccc2[N+](=O)[O-])o1 1.58 µM
O=c1[nH]c(C2CCCN(S(=O)(=O)c3ccccc3)C2)nc2c1nnn2Cc1ccccc1F (stereo not drawn) 12.6 µM
S=C([S-])NCCNC(=S)[S-].[Zn+2] 10 µM
O=C(OC1CCOC1=O)c1ccc(S(=O)(=O)N2CCCCCC2)cc1 (stereo not drawn) 15.8 µM
N=C1[C@@H](O)[C@]2(I)c3ccccc3N3C(=N)[C@H](O)[C@@H]4c5ccccc5N1[C@@H]4[C@@H]32 3.98 µM
CCOC(=O)C(=CNc1ccc(NC2=NCC(C)S2)cc1)C(=O)OCC (stereo not drawn) 14.1 µM
CCCc1nc(SCc2ccccc2Cl)n[nH]1 12.6 µM
Cc1cc(C)n(CCc2nc(-c3ccc(C)o3)cs2)n1 25.1 µM
O=C(OCc1nnc(-c2ccccc2)o1)c1ccc(S(=O)(=O)NCc2ccco2)cc1 11.2 µM

Activity change, negative = inhibition, inactive:
CCC(C)c1ccccc1O (stereo not drawn) -4.21% and -12.2%
Nc1ncnc2c([C@@H]3O[C@@H](CO)[C@H](O)[C@@H]3O)nsc12 -5.06%
C#C[C@]1(OC(C)=O)CC[C@H]2[C@@H]3CCC4=CC(=O)CC[C@@H]4[C@H]3CC[C@@]21C -6.39%
Cc1[nH]n(-c2ccccc2)c(=O)c1/C=N/NC(=O)COc1ccccc1[N+](=O)[O-] -11.2%
Cc1c(-c2cccs2)[n+](=O)c2c(n1[O-])CCC2 -3.36%
Cc1noc(C)c1COc1cccc(C(=O)OCCOc2ccc(F)cc2)c1 -21.1%
O=C(CSc1nnc(-c2ccncc2)n1-c1ccc(F)cc1)NC(=O)NCc1ccco1 -17.3%
COc1ccc(S(=O)(=O)N(C)CC(=O)Nc2ccccc2SC)cc1 -14%
COc1ccccc1CN1CC[C@@]2(CCCN(C(=O)c3cc(C(F)(F)F)cc(C(F)(F)F)c3)C2)C1 -17.7%
Cc1ccc(S(=O)(=O)N2CCCCC2)cc1C(=O)Nc1ncn[nH]1 -5.87%
O=C(CNC(=S)N(CCCN1CCOCC1)Cc1cccs1)NCCN1CCOCC1 -0.361%
C=CCNC(=O)CCCc1ccccc1 -20.7%
COc1c(OC)c2occc2c2oc(=O)ccc12 -25.5%
COCCN(C(=O)Cc1cccs1)c1nnc(-c2cccnc2)s1 0.945%
O=C(c1cccc(F)c1)N1CCC2(CC1)CCN(c1ccc(-c3ccccc3)cc1)CC2 3.75%
Cc1cccc(C(=O)O/N=C(\c2ccccc2)c2cccnc2)c1 -21.2%
